# Assay results: ChEMBL document CHEMBL4888484, “Replenishing the malaria drug discovery pipeline: Screening and hit evaluation of the MMV Hit Generation Library 1 (HGL1) against asexual blood stage Plasmodium falciparum ,using a nano luciferase reporter read-out” (2022)
# About 540 (0.36%) of roughly 150,000 compounds showed an effect of 50% or more. The list shows a part of the results.
# System: Plasmodium falciparum
# Assay: Primary screen in NF54 nanoGlo assay, in single point, at 2uM, 72h; a lower Z score goes with more inhibition
# Type: functional, Erythrocyte
# Details: timepoint 72 hour
Structure (SMILES),% Inhibition [%],Z score
C[C@]1(C(N)=O)CCN(c2nnc(-c3ccc(C#N)cc3)n2Cc2ccco2)C1,-3,0.51
O=C1CCc2cc(OS(=O)(=O)c3ccccc3)ccc2N1,29,-3.87
Nc1c(C(=O)NC2CCS(=O)(=O)CC2)ccnc1-c1ccccc1,-11,1.73
COc1cc(C)nc(NC(=O)[C@H]2CCCO2)n1,-2,0.33
Cc1noc(C)c1CN1C(=O)N(c2ccc(Cl)cc2)c2ncccc2S1(=O)=O,-4,0.42
Cc1nsc(C(=O)NCCCn2ncccc2=O)n1,-7,1.2
O=C(NCCNc1cccc(Br)c1)Nc1cccnn1,-15,1.48
COc1ccc(C(=O)N[C@@H](Cn2ccnn2)C(C)C)cn1,3,-0.37
CC1CC(NC(=O)N[C@H]2CCCOC2)CC(c2ccccc2)C1 (stereo partly specified),-10,1.34
CNc1ncccc1[C@@H]1C[C@H](NC(C)=O)C[C@H](Cc2ccccc2)O1,6,-0.74
CN1CCC(CCNC(=O)CCCOc2ccccc2)CC1,-3,0.48
CCc1ccc(CS(=O)(=O)NC(=O)[C@H]2CCCC(F)(F)C2)cc1,-19,1.91
CCC(CC)CN(CC(=O)OC)S(=O)(=O)c1ccc(S(C)(=O)=O)cc1,-13,1.86
CCn1cc(CC(=O)N2CCc3c(cccc3C(N)=O)C2)c2ccccc21,-1,0.2
N#CC1(NC(=O)[C@@H]2CCN(c3ccc(F)c(F)c3)C2=O)CCC1,-4,0.39
CCn1cc(S(=O)(=O)N2CCC[C@H]2c2n[nH]c(C)n2)cn1,10,-1.64
COc1ccccc1N1CCN(C(=O)c2snc3c(=O)n(C)c(=O)[nH]c23)CC1,-1,0.15
COc1ccc2c(c1)CN(C(=O)c1oc3c(Cl)cccc3c1C)CC2,-5,0.93
CCN(CC)C(=O)[C@H]1CC(=O)OC1(C)C,-15,1.93
CN(CCC#N)c1ncc(C#N)cc1Cl,6,-1.14
Cn1cc(C2CCCN2CC(O)c2ccccc2)cn1 (stereo unspecified),-8,1.11

Structure (SMILES),% Inhibition [%],Z score
Cc1ccc(Nc2nc(N)[nH]c(=O)n2)cc1,-15,2.07
O=C(O)Cc1ccc(CNC(=O)CC2=CCCCC2)cc1,23,-2.64
COc1ccc(CC(=O)Nc2ccc3c(c2)C(N2CCC(C)CC2)=Nc2ccccc2O3)cc1,5,-0.73
CCCCCNC(=O)c1snc(C(=O)N2CCCC2)c1N,-5,0.56
O=S(=O)(Oc1cccc(-c2nnco2)c1)c1ccc2c(c1)OCCCO2,-4,0.67
CCN(CC)S(=O)(=O)c1cc(C(=O)NCc2ccc3c(c2)OCO3)n(C)c1,3,-0.46
COc1ccc(C)cc1NC(=O)Cn1nc(C(=O)N2CCc3ccccc32)ccc1=O,-3,0.35
O=c1c(NCc2ccccc2)nccn1-c1ccc2c(c1)OCCO2,-11,1.22
CO[C@@]1(C)C[C@@H](O)C12CCN(C(=O)Cc1csc(C)n1)CC2,-11,1.41
Cn1cc(Br)cc1C(=O)N[C@H]1CC[C@H](CO)CC1,23,-2.57
COc1ccc(-c2n[nH]cc2CN2CCc3nc[nH]c(=O)c3CC2)cc1OC,11,-2.04
CCOC(=O)CCC(=O)N1CCN([C@H](C(=O)N(CC)CC)C2CCCC2)CC1,-4,0.48
COC(C)(C)C(=O)Nc1ccc(C)cc1F,-3,0.42
O=C(Cc1ccccc1F)NCc1cc2n(n1)CCN(C1CCCCC1)C2,4,-0.6
Cc1ccc(Cn2c(=O)c(N3CCC[C@H](C(=O)NCc4ccccc4F)C3)nc3ccccc32)cc1,39,-1.15
Cc1c(C(=O)N2CCN(c3ccccc3F)CC2)cccc1N(C)S(C)(=O)=O,-9,1.78
Cn1nc2cccc(S(=O)(=O)N[C@H]3CCS(=O)(=O)C3)c2n1,-6,0.73
O=C(OCCNC1=NS(=O)(=O)c2ccccc21)c1ccc(F)cc1,-8,1.03
C[C@@H](C(=O)N(C)CCCOc1ccc(Cl)cc1)N1C(=O)NC2(CCCC2)C1=O,-6,0.78
O=C(NCc1cccc2[nH]ccc12)[C@H]1CCS(=O)(=O)C1,-12,1.34
COC[C@H](Cc1ccccc1)N(C)S(=O)(=O)C1CC1,-12,1.63

Structure (SMILES),% Inhibition [%],Z score
O=C(NC1CCN(c2cnsn2)CC1)c1cc(Br)ccc1Cl,-12,1.52
CN(C)S(=O)(=O)NCc1ccnc(-c2ccsc2)c1,-13,1.45
Cc1cccc(-c2nc3nc(C)c(CC(=O)N(C)Cc4ccccc4)c(C)n3n2)c1,-5,0.6
CC[C@H]1CC[C@H](C(=O)N2CC[C@@](O)(C(N)=O)C2)CC1,-9,0.95
O=C(NCC1CCN(Cc2nc(-c3ccccc3)cs2)CC1)[C@H]1CCCO1,-7,1.15
O=C(C[C@@H]1C=CCC1)NCC1(CO)CCCC1,-8,1.05
Cc1ccc(C(=O)N2CCC3(CC[C@@H]3OCC(N)=O)CC2)nc1,-5,0.61
Cc1cnccc1-n1cc(-c2cc(C(=O)N3CCCC3)c3ccccc3n2)cn1,-1,0.27
COCCn1ccc2c(OCC(=O)Nc3cccc(C(=O)N4CCNC(=O)C4)c3)cccc21,-7,0.81
CCn1ncc(CNC(=O)c2cnc(-c3cccc(C)c3)nc2O)c1C,-1,0.12
Cc1ccc(C(=O)N2CC[C@H](N3CCN(C)CC3)[C@H](CCC(=O)O)C2)c(O)c1,2,-0.26
Cc1ccc(/C(=N/c2sc(-c3ccccc3)nc2-c2ccccc2)N2CCC[C@H](C)C2)cc1,-8,1
C[C@]1(CNCCn2cc(Br)cn2)CCCCO1,-2,0.46
CC1(c2ccccc2C(=O)NC[C@H]2CCCO[C@@H]2c2cn[nH]c2)CC1,-6,0.76
CCOc1ccccc1NC(=O)[C@H]1CCCN(c2ccc3cc(S(=O)(=O)N4CCCCC4)ccc3n2)C1,-11,1.31
COC(=O)c1cnoc1CN[C@H](C)c1ccc(Cl)cc1Cl,-5,0.55
C[C@@H](CO)N(C)S(=O)(=O)c1ccc(F)c(Br)c1F,-5,0.95
COc1ccsc1C(=O)N(CCN(C)C)Cc1cccnc1,-1,0.18
Cc1cc(CC(=O)N[C@@H](C)c2nc(-c3cccnc3)cs2)no1,-5,0.5
NC[C@H]1CC(Cc2cccc(F)c2)=NO1,-6,1.1
Cn1cnc2cc(C(=O)NCc3csc(N)n3)ccc2c1=O,-10,1.66

Structure (SMILES),% Inhibition [%],Z score
O=C(c1nc2ccccn2c1-c1ncc[nH]1)N1CCN(C2CCCCC2)CC1,-13,1.73
Cc1cc(C(=O)NCc2noc(C(N)=O)n2)cc(C)n1,-15,1.6
Cc1cc(C)n(-c2nnc(Nc3ccc(C)c(Cl)c3)c3ccccc23)n1,-4,0.64
COc1cccc(CN2C(=O)c3cc4ccc(OC)cc4n3C[C@@]2(C)C(=O)NC2CCCCCC2)c1,-12,1.58
CC(C)Oc1cccc2c1c(NC(=O)CN1CCOC1=O)nn2Cc1ccccc1,-13,2.47
Cc1nonc1CNC(=O)[C@]1(C)CCCCO1,-9,1.11
Cc1cc(CC(=O)N2CCO[C@H](c3ccccc3)C2)on1,-18,2.27
C[C@H]1c2nnc(C3CCCC3)n2CCN1C(=O)c1cncc(O)c1,-6,1
COc1cc(N2CCC(Oc3cccc(F)c3)(C(=O)O)CC2)ncn1,-10,2.02
Cn1cnnc1[C@@H]1CCCN1Cc1c[nH]nc1-c1cccs1,5,-0.52
COCCn1c(N)c(N(Cc2ccccc2)C(=O)COc2cccc(C)c2)c(=O)[nH]c1=O,-9,1.32
CC(C)(C)CN1C[C@@H](NC(=O)COc2ccc3c(c2)OCO3)CC1=O,-1,0.23
N#Cc1c([C@H]2CCOC2)cc(-c2ccc(F)cc2C(F)(F)F)nc1N,0,-0.06
CC(C)C[C@H]1C[C@@H](NC(=O)c2ccccc2)C[C@@H](c2cccnc2)O1,-14,1.31
CCn1ccc(C(=O)N2CC(F)(F)C[C@H]2COc2ccc3c(c2)CCC3)n1,-10,1.77
CCc1nnc2n1CCN(CCC(=O)N1CCCCC1)C2,-4,0.58
COc1ccc(NC(=O)[C@H]2C[C@H](Cc3ccccc3)N[C@]23C(=O)Nc2ccccc23)cc1,-15,1.91
CC(C)[C@H](C)N(Cc1ccc(Cl)cc1)Cc1nc(C(=O)NCCc2ccccn2)co1,-15,1.84
Cc1nn(C)c(NC(=O)c2cc(C3CC3)nc3ccccc23)c1C,9,-1.17
CNC(=O)c1nc(-c2ccccc2)n2c1CCN(C(=O)CC1CC1)CC2,6,-0.65
